# Results from the supplement of paper PMC12067230.
# The data scatter; read single values as rough.
# Assay: amyloid nucleation score relative to library mode (yeast Sup35 reporter selection) (log enrichment difference); higher = more amyloid nucleation; sequences are the first 22 residues of the Bri2 peptide extended by up to 12 random residues
# Conditions: random library (experiment): 1;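 active = nucleation score significantly above 0 at FDR 0.05; inactive = not significantly above 0 or absent from output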
# 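Further: [psi-pin-] Saccharomyces cerevisiae expressing SupN fusions, induced by 100 µM Cu2SO4, selected 7 d at 30 °C without adenine and uracil, scored by deep sequencing of output versus input.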
row,Sequence,amyloid nucleation score
1,EASNCFAIRHFENKFAVETLICCAL,6.91
2,EASNCFAIRHFENKFAVETLICYNQSQ,inactive
3,EASNCFAIRHFENKFAVETLICQCQTERRKAL,6.63
4,EASNCFAIRHFENKFAVETLICGT,inactive
5,EASNCFAIRHFENKFAVETLICVCFS,7.71
6,EASNCFAIRHFENKFAVETLICDIALCPACCLAN,5.38
7,EASNCFAIRHFENKFAVETLICFNYETKNWRMRR,3.65
8,EASNCFAIRHFENKFAVETLICVVCNRSERFWAL,4.63
9,EASNCFAIRHFENKFAVETLICYSGP,2.05
10,EASNCFAIRHFENKFAVETLICDVCVMAKYVARW,6.18
11,EASNCFAIRHFENKFAVETLICLAKPSLWHVRFV,inactive
12,EASNCFAIRHFENKFAVETLICRVSLNRILACRC,-0.431
13,EASNCFAIRHFENKFAVETLICDLEYASELVIGW,inactive
14,EASNCFAIRHFENKFAVETLICCY,inactive
15,EASNCFAIRHFENKFAVETLICDASTVIRVRRRR,inactive
16,EASNCFAIRHFENKFAVETLICAAQMVQRNIRAM,inactive
17,EASNCFAIRHFENKFAVETLICCVYAWAGMGCGV,4.2

row,Sequence,amyloid nucleation score
1,EASNCFAIRHFENKFAVETLICDVGVW,2.99
2,EASNCFAIRHFENKFAVETLICGFSVSIHVISQS,2.9
3,EASNCFAIRHFENKFAVETLICTITR,inactive
4,EASNCFAIRHFENKFAVETLICLSSLYSIVSTMG,inactive
5,EASNCFAIRHFENKFAVETLICLIRVSSRFVPCL,inactive
6,EASNCFAIRHFENKFAVETLICGRPNSNQRVVYG,inactive
7,EASNCFAIRHFENKFAVETLICTRSVYCGFRTV,0.153
8,EASNCFAIRHFENKFAVETLICDGTYMSMTWRQG,inactive
9,EASNCFAIRHFENKFAVETLICVWLKES,inactive
10,EASNCFAIRHFENKFAVETLICLMMIMLACVPRS,inactive
11,EASNCFAIRHFENKFAVETLICLHAQTGSRVLEV,2.54
12,EASNCFAIRHFENKFAVETLICHVQSPE,inactive
13,EASNCFAIRHFENKFAVETLICYGKFKCVLLTCR,inactive
14,EASNCFAIRHFENKFAVETLICGYLLNVTRVLIQ,inactive
15,EASNCFAIRHFENKFAVETLICKSRPLVNTVCVV,inactive
16,EASNCFAIRHFENKFAVETLICPLVN,inactive
17,EASNCFAIRHFENKFAVETLICLFVIVMVYGTFI,3.31

# Same assay, conditions: random library (experiment): 2
row,Sequence,amyloid nucleation score
1,EASNCFAIRHFENKFAVETLICHQQKSGIIKLMC,inactive
2,EASNCFAIRHFENKFAVETLICPM,inactive
3,EASNCFAIRHFENKFAVETLICLRFTKHLARFIV,inactive
4,EASNCFAIRHFENKFAVETLICMKVKRYTFFAGC,-0.239
5,EASNCFAIRHFENKFAVETLICRNIMRRS,inactive
6,EASNCFAIRHFENKFAVETLICCMTPHMTTEAWA,3.71
7,EASNCFAIRHFENKFAVETLICTRM,inactive
8,EASNCFAIRHFENKFAVETLICVFLISDVKMVGE,inactive
9,EASNCFAIRHFENKFAVETLICGLAESGGRARFW,inactive
10,EASNCFAIRHFENKFAVETLICFMLIYLFCLDGL,inactive
11,EASNCFAIRHFENKFAVETLICWSYIAGKVNRET,-0.0583
12,EASNCFAIRHFENKFAVETLICQRFAPLVFVDIG,inactive
13,EASNCFAIRHFENKFAVETLICLSRRHGWDRLHS,1.6
14,EASNCFAIRHFENKFAVETLICGHRGVHCRFHAM,-0.293
15,EASNCFAIRHFENKFAVETLICGFIIRVASACVG,inactive
16,EASNCFAIRHFENKFAVETLICAML,0.268
17,EASNCFAIRHFENKFAVETLICDK,inactive
18,EASNCFAIRHFENKFAVETLICTVIACENMLMGR,inactive
19,EASNCFAIRHFENKFAVETLICGMSVRCLESWYK,inactive
20,EASNCFAIRHFENKFAVETLICLWCCISRVCCPS,2.05
21,EASNCFAIRHFENKFAVETLICCS,5.76
22,EASNCFAIRHFENKFAVETLICVCWLSLWYAGVV,inactive
23,EASNCFAIRHFENKFAVETLICCDI,inactive
24,EASNCFAIRHFENKFAVETLICWRLVCSFLRSEL,inactive
25,EASNCFAIRHFENKFAVETLICGSSNWGSSSWYG,4.44
26,EASNCFAIRHFENKFAVETLICLWTLFLSNKSRS,inactive
27,EASNCFAIRHFENKFAVETLICISWFTLDECVRV,inactive
28,EASNCFAIRHFENKFAVETLICWFLGRRRRNNWA,inactive

# Same assay, conditions: random library (experiment): 3
row,Sequence,amyloid nucleation score
1,EASNCFAIRHFENKFAVETLICGSNMNRTMRGSR,2.31
2,EASNCFAIRHFENKFAVETLICGIRMRVTFFLPG,inactive
3,EASNCFAIRHFENKFAVETLICACRFV,5.41
4,EASNCFAIRHFENKFAVETLICFNGLVVPVRMLG,3.87
5,EASNCFAIRHFENKFAVETLICDMINTSDITKYS,inactive
6,EASNCFAIRHFENKFAVETLICIANPRSVGRPAT,inactive
7,EASNCFAIRHFENKFAVETLICCDVTVYFYELNA,4.02
8,EASNCFAIRHFENKFAVETLICCSETCTKWNWEW,5.2
9,EASNCFAIRHFENKFAVETLICCCTLNGEYYRMR,7.33
10,EASNCFAIRHFENKFAVETLICFGHNTLVLSCF,7.17
11,EASNCFAIRHFENKFAVETLICWYTHLPNRDVLC,inactive
12,EASNCFAIRHFENKFAVETLICYVHQSLLLVGRA,inactive
13,EASNCFAIRHFENKFAVETLICGSRYQSKVVKAK,inactive
14,EASNCFAIRHFENKFAVETLICVPLPFLWMVEGT,inactive
15,EASNCFAIRHFENKFAVETLICGYTLNGLHTGDR,inactive
16,EASNCFAIRHFENKFAVETLICGEIWAFMGRVLW,inactive
17,EASNCFAIRHFENKFAVETLICMYVVCSAMSLGL,inactive
18,EASNCFAIRHFENKFAVETLICLVKFAVDSGLVT,inactive
19,EASNCFAIRHFENKFAVETLICARLKQCVKGSLL,inactive
20,EASNCFAIRHFENKFAVETLICVHVLF,1.87
21,EASNCFAIRHFENKFAVETLICWSRYTCLAPVKR,inactive
22,EASNCFAIRHFENKFAVETLICLKEVGWALMPLT,inactive
23,EASNCFAIRHFENKFAVETLICIMYYCSQACDFS,-0.467
24,EASNCFAIRHFENKFAVETLICTSYVSRVNALLR,inactive
25,EASNCFAIRHFENKFAVETLICWGMVTLKRGLVA,inactive
